The text below walks through data of PubChem BioAssay AID1347073 (National Center for Advancing Translational Sciences (NCATS), 2019).

About 200 (0.44%) of roughly 45,000 compounds were called active. Inconclusive results (about 7%) are left out. Calls come from the whole dose curve; as a rule, active = well fitted activation curve with a large enough effect; inconclusive = small, poorly fitted or top-dose-only effect; inactive = no such curve, though single readings can be large or run the other way. The list shows a part of the results.

This assay in a line: qHTS of TDP-43 Inhibitors: NCGC Sytravon Library Screen. Note: 0% is about no effect; nearly all actives have a fitted effect of over 55% in size. The settings on record: yeast TDP-43 toxicity rescue, BacTiter-Glo growth, 24 h; series mostly up to 46.1 µM; growth rescue (activation): at the top concentration. An outline of the steps:
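TDP-43-expressing yeast, pregrown in raffinose, seeded at OD600 0.02 in galactose medium with compound for 24 hr at 30 deg C. Growth read by BacTiter-Glo luminescence, so rescue of toxicity appears as activation.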
As for `O=C1CC(N2CCSCC2)C(=O)N1c1ccccc1` (centres undefined), the “growth rescue (activation)” value is inactive: 7.67%.

Consider `Cc1ccc(-c2nn(-c3ccccc3)cc2/C=C(\C#N)C(=O)NCc2ccccc2)cc1`, for which the “growth rescue (activation)” value is inactive: 6.51%.

Consider `CCc1cc(C(=O)N/N=C/c2ccc(O)cc2)c2ccccc2n1`, for which the “growth rescue (activation)” value was inactive: -12.5%.

`O=C(Cn1cc([N+](=O)[O-])ccc1=O)NCC(=O)Nc1ccc(F)c(F)c1F`: the “growth rescue (activation)” value is inactive: -5.66%.

Consider `COc1ccc([N+](=O)[O-])cc1NC(=O)c1ccc(CN(c2ccccc2)S(C)(=O)=O)cc1`, for which the “growth rescue (activation)” value was inactive: 0.659%.

As to `Cc1cccnc1NC(=O)c1ccc(S(=O)(=O)N2CC(C)OC(C)C2)cc1` (centres undefined), the “growth rescue (activation)” value is inactive: -9.12%.

`NS(=O)(=O)c1ccc(CCNC(=O)c2ccc(Cn3c(=O)[nH]c4ccccc4c3=O)cc2)cc1`: the “growth rescue (activation)” value was inactive: -3.82%.

In the case of `Cc1ccc(OCC(=O)Nc2ccc3c(c2)OCCO3)cc1C`, the “growth rescue (activation)” value is inactive: -1.74%.

`O=C(Nc1ccccc1NS(=O)(=O)c1ccc(F)cc1)C1CCC1`: the “growth rescue (activation)” value is inactive: 14.3%.

`Cc1cccc(Nc2nc3ccccc3n3c(N)nnc23)c1`: the “growth rescue (activation)” value was inactive: 23.3%.

In the case of `CCn1cc(CN2CCCC(C(=O)c3ccc(-c4ccccc4)cc3)C2)cn1` (centres undefined), the “growth rescue (activation)” value is inactive: 1.42%.

Consider `CN(Cc1ccco1)C(=O)CSc1nc(C2CC2)n(-c2ccccc2)n1`, for which the “growth rescue (activation)” value was inactive: 28.5%.

Turning to `COCCN1C[C@@H](CO)O[C@@H](n2cnc3c(N(C)C(C)C)ncnc32)C1`, the “growth rescue (activation)” value was inactive: 10.1%.

Turning to `Cc1cc(C)c(NC(=O)c2oc3ccccc3c2COc2ccccc2)c(C)c1`, the “growth rescue (activation)” value is inactive: 4.87%.

As for `COc1ccc(NC(=S)N(CCN2CCOCC2)C2CCN(C(C)=O)CC2)cc1Cl`, the “growth rescue (activation)” value is inactive: -5.72%.

For `CCOC(=O)C1CCN(c2ccc([N+](=O)[O-])cc2)CC1`, the “growth rescue (activation)” value is inactive: 10.3%.

Regarding `COc1ccc(C2=NN(C(=O)CCC(=O)O)C(c3ccc(F)cc3)C2)cc1` (centres undefined), the “growth rescue (activation)” value was inactive: -0.285%.

Regarding `CCN1/C(=C/c2ccc3ccccc3[n+]2CCCS(=O)(=O)[O-])C=Cc2cc(C)ccc21`, the “growth rescue (activation)” value was inactive: -29%.

In the case of `CCCCc1c(C)nc2ccc(C(=O)OCC)cc2c1Cl`, the “growth rescue (activation)” value is inactive: 21.1%.

For `O=C(CCCNC(=O)c1ccc(Cl)cc1)Nc1cccc(F)c1`, the “growth rescue (activation)” value is inactive: 12.4%.

For `COCOc1cccc(CN2CCC2(C)C(=O)NCCNC(C)=O)c1` (centres undefined), the “growth rescue (activation)” value was inactive: 2.86%.

Turning to `Cc1ccc(-n2c(-c3ccco3)n[nH]c2=S)cc1`, the “growth rescue (activation)” value is inactive: 0.753%.

As for `CCC12CC3CC(C1)CC(C(=O)NNC(N)=O)(C3)C2`, the “growth rescue (activation)” value was inactive: 5.65%.

Regarding `O=C(CN1CCN(C(=O)c2ccco2)CC1)Nc1ccccc1`, the “growth rescue (activation)” value is inactive: 1.04%.

Consider `CNc1c(NS(=O)(=O)c2cc(NC(C)=O)ccc2C)c(=O)oc2ccccc12`, for which the “growth rescue (activation)” value is inactive: 6.21%.

For `CCN1CCN(c2cc(N3CCN(C(=O)c4ccco4)CC3)c3c4c(onc24)-c2ccccc2C3=O)CC1`, the “growth rescue (activation)” value is inactive: -12%.

With `O=C(O)c1cccc(NC(=S)N/N=C/c2c[nH]c3ccccc23)c1`, the “growth rescue (activation)” value was inactive: 9.9%.

For `COc1ccc(Br)cc1CN1CCN(C(=O)c2cccc(F)c2)CC1`, the “growth rescue (activation)” value is inactive: -11%.

With `Cc1cccn2c1nc(=S)n2C(=O)c1ccco1`, the “growth rescue (activation)” value is inactive: 4.05%.
